The campaign covered roughly 270,000 compounds. About 620 (0.23%) were called active. Inconclusive results, whose numbers are uncertain, are shown with a selection of clear calls. Calls follow the shape of the dose curve; as a rule, active = well fitted inhibition curve with a large enough effect in the polarisation, with a control signal flat (not every such curve was filed as active); inconclusive = small, poorly fitted or top-dose-only effect, or effect the other way, or a change in a side signal; inactive = no such curve, though single readings can be large or run the other way; the % refers to the polarisation. Potencies of inconclusive entries are doubtful fits and often do not repeat. “Side channel” marks fits to a control or component signal instead of the main read-out.
Biological target: Menin (Homo sapiens) (UniProt O00255)
Test: qHTS Assay for Inhibitors Targeting the Menin-MLL Interaction in MLL Related Leukemias: Competition With Texas Red Labeled MLL-derived Mutant Peptide; as to FP activity change, negative = inhibition: % of control where 0% means no effect
Settings: fluorescence polarization; FP activity change, negative = inhibition: at 61.6 µM (top of the series)
Potency is read from the fitted curve at half-maximal effect; tags tell the direction and shape of the fitted curve or compound fluorescence and quenching.

Chain of UniProt O00255 (O00255 whole entry, looked up): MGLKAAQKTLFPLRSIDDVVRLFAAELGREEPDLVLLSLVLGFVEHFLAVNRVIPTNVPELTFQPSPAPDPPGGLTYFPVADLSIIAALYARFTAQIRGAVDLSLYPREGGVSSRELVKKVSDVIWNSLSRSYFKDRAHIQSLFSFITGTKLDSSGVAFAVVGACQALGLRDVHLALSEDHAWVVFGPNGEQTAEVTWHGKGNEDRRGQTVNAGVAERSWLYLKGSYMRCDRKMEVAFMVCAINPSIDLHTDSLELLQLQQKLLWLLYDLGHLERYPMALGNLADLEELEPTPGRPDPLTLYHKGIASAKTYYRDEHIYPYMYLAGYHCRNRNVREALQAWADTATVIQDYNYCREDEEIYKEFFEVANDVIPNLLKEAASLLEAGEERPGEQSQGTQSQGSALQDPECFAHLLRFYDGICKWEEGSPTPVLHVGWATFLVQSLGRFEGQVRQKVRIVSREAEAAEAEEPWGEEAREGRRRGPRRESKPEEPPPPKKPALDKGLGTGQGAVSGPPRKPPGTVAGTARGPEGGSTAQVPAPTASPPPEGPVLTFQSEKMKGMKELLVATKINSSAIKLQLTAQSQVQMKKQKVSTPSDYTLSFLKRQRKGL

Potency, inconclusive:
Cc1ccc(-c2csc(N/N=C/c3ccco3)n2)c(C)c1 15.8 µM [quencher, side channel, partial curve]
O=C(C1=C(O)C(=O)N(CC2CCCO2)C1c1cccnc1)c1ccco1 (stereo not given) 3.16 µM [fluorescent, side channel, full curve, poor fit]
CCn1c(=O)cc(SCC(=O)NCCC2=CCCCC2)c2ccccc21 22.4 µM [fluorescent, side channel, single point]
Cc1sc2ncnc(N3CCN(Cc4ccccc4)CC3)c2c1-c1ccccc1 2.24 µM [inhibitor, full curve]
CCCC(=O)N(Cc1cc(=O)[nH]c2ccccc12)c1ccc(C)cc1C 11.2 µM [inhibitor, partial curve]
CC(C)CCNC(=O)C1(O)c2ccccc2NC(=O)N1c1ccc(Cl)cc1 (stereo not given) 35.5 µM [quencher, side channel, single point]
COc1cccc(Nc2ncc3nc(-c4ccccc4)c(=O)n(Cc4cccs4)c3n2)c1 1.78 µM [quencher, side channel, full curve]
CC(NC(=O)c1ccc(F)cc1)c1ccc2c(c1)CCCC2 (stereo not given) 25.1 µM [fluorescent, side channel, single point]
O=S(=O)(Nc1nccs1)c1ccc(Nc2nnc(-c3ccccc3)c3ccccc23)cc1 17.8 µM [quencher, side channel, partial curve]
CCOC(=O)c1nnc(-c2ccc(C)cc2)nc1N1CCSCC1 8.91 µM [fluorescent, side channel, full curve, poor fit]
COc1ccc2sc(/C=C/c3ccccc3O)[n+](C)c2c1 25.1 µM [fluorescent, side channel, partial curve]
O=C(CSc1nnc(Cc2ccccc2)o1)N1CCc2ccccc21 28.2 µM [fluorescent, side channel, single point]
CC[C@H](C)C(=O)O[C@H]1CCC=C2C=C[C@H](C)[C@H](CC[C@@H]3C[C@H](O)CC(=O)O3)[C@H]21 17.8 µM [fluorescent, side channel, partial curve]
CC(C)(C)OC(=O)NCCCC[C@H](NC(=O)c1nc[nH]c1C(=O)NCc1ccccc1)C(=O)OC(C)(C)C 7.08 µM [fluorescent, side channel, partial curve]
N#CC1=C2SCN(Cc3ccco3)CN2C(=O)CC1c1ccc(Cl)cc1 (stereo not given) 35.5 µM [quencher, side channel, single point]
O=C(Nc1nc2ccccc2[nH]1)c1ccc([N+](=O)[O-])cc1 25.1 µM [quencher, side channel, single point]
COc1ccc(NC(=S)N(CCCN2CCCCCC2)Cc2cccs2)cc1 28.2 µM [inhibitor, partial curve, poor fit]
CSCc1nnc(NC(=O)c2ccc(S(=O)(=O)N(CC(C)C)CC(C)C)cc2)o1 14.1 µM [quencher, partial curve]
CCOc1ccc(S(=O)(=O)N2CCCC(C(=O)N3CCC(C(N)=O)CC3)C2)cc1Cl (stereo not given) 35.5 µM [inhibitor, single point]
c1ccc(-c2nc3nonc3nc2-c2ccccc2)cc1 14.1 µM [quencher, side channel, partial curve]
Cc1cc(OCC(=O)N(C)Cc2ccccc2)cc(C)c1Cl 14.1 µM [fluorescent, side channel, partial curve]
Cc1ccccc1Nc1nc(-c2sc(NC(=O)c3ccc([N+](=O)[O-])cc3)nc2C)cs1 8.91 µM [quencher, side channel, partial curve]
CCC(C)(C)n1nnnc1C(c1cc2cccc(C)c2[nH]c1=O)N1CCN(C(=O)c2ccco2)CC1 (stereo not given) 11.2 µM [fluorescent, side channel, partial curve]
COc1cc2c(cc1OC)/C(=C/C(=O)N1CCOCC1)NC(C)(C)C2 3.55 µM [inhibitor, partial curve]
CC(C)(C)Cc1nnc(NS(=O)(=O)c2ccc([N+](=O)[O-])cc2)s1 35.5 µM [quencher, side channel, single point]
C[C@H](C(=O)OCO/N=[N+](\[O-])N1CCCC1)c1cccc2ccccc12 25.1 µM [quencher, side channel, single point]
COc1ccc(N/N=C(\C#N)C(=N)SCc2ccccc2)cc1 20 µM [quencher, side channel, partial curve]
NS(=O)(=O)c1ccc(NC(=O)COC(=O)c2c3c(nc4ccccc24)/C(=C\c2ccc4c(c2)OCO4)CCC3)cc1 12.6 µM [quencher, side channel, partial curve]
Cc1ccc(NC(=O)c2ccc(OC(=O)COc3ccc(Cl)cc3C)cc2)cc1 25.1 µM [inhibitor, single point]
C(=C\c1nnc2c3ccccc3ncn12)/c1ccccc1 31.6 µM [quencher, side channel, partial curve]
CCc1ccc(C2=NN(CCC(=O)NC(C)CCc3ccccc3)C(=O)CC2)cc1 (stereo not given) 11.2 µM [fluorescent, side channel, partial curve]

Potency, inactive:
Cc1cccc(Nc2cc(Cl)nc(SCC(=O)O)n2)c1C
Cc1ccc(S(=O)(=O)Nc2cccc3cccnc23)cc1

FP activity change, negative = inhibition, inactive:
COc1ccc(CC(=O)N2CCN(c3cccc(Cl)c3)CC2)cc1OC -0.338%
Cc1nn(-c2ccc([N+](=O)[O-])cc2)c(N)c1-c1ccccc1 17.3%

— PubChem BioAssay AID1768 (National Center for Advancing Translational Sciences (NCATS), 2009)
